From PubChem BioAssay AID588855 (National Center for Advancing Translational Sciences (NCATS), 2011)
The campaign covered roughly 410,000 compounds. About 5,000 (1.2%) were called active. This list was built around the results that the source calls inconclusive (neither active nor inactive); the mix of calls is not that of the screen. The call rests on the fitted dose curve; in most records, active means well fitted inhibition curve with a large enough effect; inconclusive means small, poorly fitted or top-dose-only effect; inactive means no such curve, though single readings can be large or run the other way. Potencies beside an inconclusive call are fits to weak or partial responses and may not hold up.

Experiment: qHTS for Inhibitors of TGF-b; further: nearly all actives have a fitted effect of over 65% in size
Details: HepG2 CAGA-GFP TGF-b/SMAD3 reporter, GFP fluorescence, 18 h, TGF-beta stimulated, 500 pg/mL final; series mostly up to 46.1 µM
In short: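 GFP signal (ex488/em500-530) from TGF-beta-stimulated HEPG2 CAGA-GFP cells, 500 pg/mL final, 18 h at 37 degrees C in DMEM plus 1% FBS, normalized to unstimulated and DMSO-stimulated controls.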
Potency means the concentration at half of the fitted maximal effect; tags describe the fitted curve by direction and shape.

Structure (SMILES) | Potency
COc1ccc(OC)c(C(c2nnnn2C2CCCC2)N2CCN(c3ccccc3)CC2)c1 (stereo not drawn) | inactive
COc1ccc(CN2CCN(Cc3ccc(C(F)(F)F)cc3)CC2)cc1 | inconclusive: 35.5 µM [inhibitor, single point]
COc1ccc(OCCCC(=O)Nc2cccc(S(=O)(=O)N3CCCCCC3)c2)cc1 | inconclusive: 14.1 µM [inhibitor, single point]
COc1ccc(CCNC(=O)c2ccccc2N(C)S(=O)(=O)c2ccccc2)cc1 | inconclusive: 0.631 µM [inhibitor, full curve, poor fit]
COc1cc(C(=O)NCc2ccccc2)ccc1OC(F)F | inactive
CN1CCN(C(=O)c2cc3nc(-c4ccccc4)cc(C(F)(F)F)n3n2)CC1 | inconclusive: 35.5 µM [inhibitor, single point]
CCOc1cc(CNc2ccc(N3CCCCC3)cc2)cc(Br)c1OCC(=O)NC(C)(C)C | inconclusive: 22.4 µM [inhibitor, single point]
COc1cccc(/C=N/Nc2snc(SC)c2C#N)c1 | inconclusive: 7.94 µM [inhibitor, partial curve, poor fit]
Cc1onc(-c2ccccc2)c1C(=O)Nc1ncc([N+](=O)[O-])s1 | active: 8.91 µM
Cc1cccc(NC(=O)C2CCCN(S(=O)(=O)c3ccc4c(c3)oc(=O)n4C)C2)c1C (stereo not drawn) | inactive
CN(C(=O)C1Cc2c(-c3ccccc3Oc3ccccc3)ccnc2O1)c1ccccc1 (stereo not drawn) | inconclusive: 12.6 µM [inhibitor, single point]
COC(=O)c1c(NC(=O)COc2ccc(C)cc2Br)sc2c1CCCC2 | inactive
Cc1ccc(NS(=O)(=O)c2cc(C(=O)Nc3cccc([N+](=O)[O-])c3)ccc2C)cc1 | inconclusive: 17.8 µM [inhibitor, single point]
O=S(=O)(NCc1ccccn1)c1cc(Cl)ccc1Cl | inactive
Cc1cc(C)n(-c2ccc(C(=O)Nc3ccc(S(=O)(=O)NCc4ccco4)cc3)cc2)n1 | inconclusive: 31.6 µM [inhibitor, single point]
O=C(/C=C/c1ccccc1)/C=C/c1ccccc1 | inconclusive: 10 µM [inhibitor, partial curve]
COc1cc(NC(=O)c2[nH]cnc2C(N)=O)cc(C(=O)Nc2cccc(C(F)(F)F)c2)c1 | active: 4.47 µM
O=C(Oc1ccccc1)c1cccc2cccnc12 | inconclusive: 7.94 µM [inhibitor, partial curve, poor fit]
COc1ccc(CNC(=O)C[C@H]2C[C@H](C(=O)N(C(C)C)C(C)C)[C@@]3(C)c4[nH]c5cc(-c6ccco6)ccc5c4CCN3C2=O)cc1OC | inconclusive: 25.1 µM [inhibitor, single point]
COc1ccc(CC(=O)NCc2ccccn2)cc1OC | inconclusive: 2.24 µM [inhibitor, partial curve, poor fit]
Cc1ccc(Cl)cc1N1C(=O)CC(Sc2ccccc2N)C1=O (stereo not drawn) | inactive
CCOC(=O)N1CCC(N(C(=O)Nc2cccc(OC)c2)C(C)CC)CC1 (stereo not drawn) | inactive
CCOC(=O)C1CCCN(CC(=O)Nc2cc(C)cc(C)c2)C1 (stereo not drawn) | inconclusive: 35.5 µM [inhibitor, single point]

Structure (SMILES) | Potency
O=C(COc1ccccc1[N+](=O)[O-])N/N=C/c1ccccn1 | inactive
O=C(Cn1ncc2c3ccccc3n(Cc3cccc(Cl)c3)c2c1=O)NCCCc1ccccc1 | inactive
COc1ccc(-c2nc(CN3CCN(c4cc(C)nc(C)c4)CC3)c(C)o2)c2ccccc12 | inconclusive: 35.5 µM [inhibitor, single point]
CC(=O)Nc1ccc(S(=O)(=O)N2CCN(Cc3nc4sc(C)c(C)c4c(=O)[nH]3)CC2)cc1 | inconclusive: 3.16 µM [inhibitor, full curve]
Cc1cccc(C)c1NC(=O)Cn1cc(C(=O)c2ccco2)c2ccccc21 | inactive
CN(C)CCCN(C(=O)c1ccc([N+](=O)[O-])o1)c1nc2cc3c(cc2s1)OCO3 | inconclusive: 35.5 µM [inhibitor, single point]
Cc1cc(C)c(S(=O)(=O)Nc2cccc(-n3cnnn3)c2)c(C)c1 | inconclusive: 2.24 µM [inhibitor, single point]
N#C/C(=C(/O)COc1ccccc1)c1nc2ccccc2s1 | inconclusive: 35.5 µM [inhibitor, single point]
Cc1ccc(NC(=O)C(c2ccccc2)c2ccccc2)c(O)c1 | active: 15.8 µM
O=C(Nc1ccc2c(c1)OCO2)O[C@@H]1C[C@H]2CCCC(=O)N3CC[C@@H](C1)[C@@H]23 | inactive
O=C(Nc1ccc(Cl)c(C(F)(F)F)c1)c1ccco1 | inconclusive: 25.1 µM [inhibitor, single point]
CC[C@]1(c2ccccc2)C(=O)N(C(=O)OC)N1C(=O)OC | inconclusive: 31.6 µM [inhibitor, single point]
Cc1cccc(CNc2ncnc3ccc(-c4cccnc4)cc23)c1 | inconclusive: 28.2 µM [inhibitor, single point]
CCCc1cc(=O)oc2cc(OCC(=O)N3CCC(C(N)=O)CC3)ccc12 | inconclusive: 14.1 µM [inhibitor, partial curve, poor fit]
COc1cccc(NCc2cc(=O)oc3cc(C)c(C(C)C)cc23)c1 | inconclusive: 35.5 µM [inhibitor, single point]
CC(=O)c1ccc(NC(=O)C(C)n2nc(-c3ccccc3)ccc2=O)cc1 (stereo not drawn) | inactive
COc1ccc(OCC(=O)Nc2ccccc2-c2ccccc2)cc1 | inactive
CN(C)CCn1cnc2c(c1=N)C(c1ccccc1)c1ccc3ccccc3c1O2 (stereo not drawn) | active: 17.8 µM
O=C(Nc1ncc(Cc2cccc(Cl)c2)s1)c1cccs1 | inconclusive: 8.91 µM [inhibitor, partial curve, poor fit]
CC(C)N(Cc1nccn1C)C(=O)c1cc(COc2ccc(-n3cncn3)cc2)on1 | inactive
CC1=NN(C2=NS(=O)(=O)c3ccccc32)C(C)(O)C1 (stereo not drawn) | inactive
COC(=O)/C=c1\sc2n(c1=O)C(C)=CC(C)(C)N=2 | inconclusive: 5.62 µM [inhibitor, single point]
COc1cc2c(cc1OC)C(Cc1ccc(O)cc1)NCC2 (stereo not drawn) | inconclusive: 5.62 µM [inhibitor, full curve, poor fit]

Structure (SMILES) | Potency
Clc1ccc(-c2nnc3c4ccccc4nc(N4CCOCC4)n23)cc1Cl | inactive
COc1ccc2c(C)c(CCC(=O)NCCc3ccc(OC)c(OC)c3)c(=O)oc2c1 | inactive
CN(C)CCCN(C(=O)c1ccco1)c1nc2c(F)cc(F)cc2s1 | inactive
C=C(C)COc1ccc(-c2nc(N)ncc2-c2ccc(Cl)cc2)c(O)c1 | inconclusive: 35.5 µM [inhibitor, single point]
CC(C)(C)NC(=O)C(c1c[nH]c2ccccc12)N(C(=O)Cn1nnc(-c2ccc(F)cc2)n1)c1cccc(O)c1 (stereo not drawn) | inconclusive: 35.5 µM [inhibitor, single point]
CCOC(=O)c1[nH]c(C)c(CCC(=O)Nc2ccccc2OCC)c1C | inactive
CNC(=O)c1c(NC(=O)CS(=O)(=O)c2ccc(F)cc2)sc(C)c1C | inactive
CCCn1c(N)c(N(CCOC)C(=O)c2cc(Cl)nc3ccccc23)c(=O)[nH]c1=O | inconclusive: 5.62 µM [inhibitor, single point]
Cc1cccc(N2CCN(C(=O)Cn3ncc4c3-c3cc(C)ccc3OC4)CC2C)c1 (stereo not drawn) | inconclusive: 25.1 µM [inhibitor, single point]
CCOc1ccc(NCc2cccn2-c2nnc(N3CCC(C(=O)NCCCN4CCCCC4CC)CC3)s2)cc1 (stereo not drawn) | inactive
Cc1nc2ccc(C(=O)N(C)Cc3ccco3)cn2c1N(C)CC1CCCCC1 | inconclusive: 15.8 µM [inhibitor, single point]
Cc1c(/C=C2\SC(=O)N(CC(=O)Nc3ccc4c(c3)OCO4)C2=O)c2ccccc2n1C | inconclusive: 5.01 µM [inhibitor, partial curve]
COC(=O)c1ccc(OCC2c3cc(OC)c(OC)cc3CCN2C(=O)c2ccccc2C)cc1 (stereo not drawn) | inconclusive: 17.8 µM [inhibitor, single point]
CN(C)c1ccc(-c2nc3n(n2)C(c2cccnc2)C2=C(CC(C)(C)CC2=O)N3)cc1 (stereo not drawn) | inconclusive: 8.91 µM [inhibitor, partial curve]
O=C(NCC1CCOCC1)c1cc(COc2ccc(F)cc2F)on1 | inactive
O=S(=O)(c1ccc(SCc2ccc(Cl)cc2)nc1)N1CCCC1 | inconclusive: 35.5 µM [inhibitor, single point]
COC(=O)Nc1nc(-c2ccccc2)c(C(=O)c2ccccc2)s1 | inconclusive: 2.51 µM [inhibitor, single point]
Nc1nc(N)nc(-c2cccc(Cl)c2)n1 | inconclusive: 5.01 µM [inhibitor, full curve, poor fit]
COc1ccc(-c2ccc(F)cc2)cc1[C@H]1[C@H]2C=CC[C@@H](C)[C@@H]2C(=O)N1Cc1ccccc1 | inconclusive: 4.47 µM [inhibitor, full curve, poor fit]
Cc1ccc(-c2nnc(Nc3ccc(Br)cc3)c3ccccc23)cc1S(=O)(=O)NCC1CCCO1 (stereo not drawn) | inconclusive: 10 µM [inhibitor, partial curve, poor fit]
Cc1nc(N2CCCC2)c2c(C(=O)N3CCN(c4ccc(F)cc4)CC3)c(C)oc2n1 | inconclusive: 10 µM [inhibitor, single point]
COc1ccccc1CN1CCC(CNS(=O)(=O)c2cc(-c3onc(C)c3C)ccc2OC)CC1 | inconclusive: 14.1 µM [inhibitor, partial curve, poor fit]
